# Experimental data as given in the supplement of paper PMC8728848.
# The other results are listed elsewhere or left out.
# B1: CFEM-SCL (Saccharomyces cerevisiae), O13547 (protein)
# chain: MRATTLLSSVVSLALLSKEVLATPPACLLACVAQVGKSSSTCDSLNQVTCYCEHENSAVKKCLDSICPNNDADAAYSAFKSSCSEQNASLGD
# Tests used:
# Assay in all cases: glycan array binding signal (z-score within array); higher = stronger binding
# Conditions in all cases: glycan notation: IUPAC condensed, linker removed
# [1] = target: Gal(b1-3)GlcNAc(b1-6)GalNAc
# Procedure, shortened: (§1)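 From the Consortium for Functional Glycomics database, 3228 arrays were curated, keeping only those whose protein sequence was available. Binding is given as a within-array Z-score averaged across arrays sharing a protein sequence and across linkers. Negative Z-scores can be read as non-binding.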
# [2] = target: Gal(b1-3)GlcNAc(b1-6)[Gal(b1-3)]GalNAc
# Procedure, shortened: as §1
# Gal(b1-3)GlcNAc6S = target: Gal(b1-3)GlcNAc6S
# Procedure, shortened: as §1
# [3] = target: Gal(b1-3)[Fuc(a1-4)]GlcNAc
# Procedure, shortened: as §1
# [4] = target: Gal(b1-3)[Fuc(a1-4)]GlcNAc(b1-2)Man
# Procedure, shortened: as §1
# [5] = target: Gal(b1-3)[Fuc(a1-4)]GlcNAc(b1-2)Man(a1-3)[Gal(b1-3)[Fuc(a1-4)]GlcNAc(b1-2)Man(a1-6)]Man(b1-4)GlcNAc(b1-4)[Fuc(a1-6)]GlcNAc
# Procedure, shortened: as §1
# [6] = target: Gal(b1-3)[Fuc(a1-4)]GlcNAc(b1-3)Gal(b1-3)[Fuc(a1-4)]GlcNAc
# Procedure, shortened: as §1
# [7] = target: Gal(b1-3)[Fuc(a1-4)]GlcNAc(b1-3)Gal(b1-4)[Fuc(a1-3)]GlcNAc
# Procedure, shortened: as §1
# [8] = target: Gal(b1-3)[Fuc(a1-4)]GlcNAc(b1-6)GalNAc
# Procedure, shortened: as §1
# [9] = target: Gal(b1-3)[GlcNAc(b1-6)]GalNAc
# Procedure, shortened: as §1
# [10] = target: Gal(b1-3)[Neu5Ac(a2-6)]GalNAc
# Procedure, shortened: as §1
# [11] = target: Gal(b1-3)[Neu5Ac(a2-6)]GlcNAc(b1-4)Gal(b1-4)Glc
# Procedure, shortened: as §1
# [12] = target: Gal(b1-3)[Neu5Ac(b2-6)]GalNAc
# Procedure, shortened: as §1
# Gal(b1-4)Gal = target: Gal(b1-4)Gal
# Procedure, shortened: as §1
# [13] = target: Gal(b1-4)GalNAc(a1-3)[Fuc(a1-2)]Gal(b1-4)GlcNAc
# Procedure, shortened: as §1
# [14] = target: Gal(b1-4)GalNAc(b1-3)[Fuc(a1-2)]Gal(b1-4)GlcNAc
# Procedure, shortened: as §1
# Gal(b1-4)Glc = target: Gal(b1-4)Glc
# Procedure, shortened: as §1
# Gal(b1-4)Glc6S = target: Gal(b1-4)Glc6S
# Procedure, shortened: as §1
# Gal(b1-4)GlcNAc = target: Gal(b1-4)GlcNAc
# Procedure, shortened: as §1
# [15] = target: Gal(b1-4)GlcNAc(a1-6)Gal(b1-4)GlcNAc
# Procedure, shortened: as §1
# Gal(b1-4)GlcNAc(b1-2)Man = target: Gal(b1-4)GlcNAc(b1-2)Man
# Procedure, shortened: as §1
# [16] = target: Gal(b1-4)GlcNAc(b1-2)Man(a1-3)Man(b1-4)GlcNAc(b1-4)GlcNAc
# Procedure, shortened: as §1
# [17] = target: Gal(b1-4)GlcNAc(b1-2)Man(a1-3)[Gal(b1-4)GlcNAc(b1-2)Man(a1-6)]Man(b1-4)GlcNAc(b1-4)GlcNAc
# Procedure, shortened: as §1
# [18] = target: Gal(b1-4)GlcNAc(b1-2)Man(a1-3)[Gal(b1-4)GlcNAc(b1-2)Man(a1-6)]Man(b1-4)GlcNAc(b1-4)[Fuc(a1-6)]GlcNAc
# Procedure, shortened: as §1
# [19] = target: Gal(b1-4)GlcNAc(b1-2)Man(a1-3)[Gal(b1-4)GlcNAc(b1-2)Man(a1-6)][Gal(b1-4)GlcNAc(b1-4)]Man(b1-4)GlcNAc(b1-4)[Fuc(a1-6)]GlcNAc
# Procedure, shortened: as §1
# [20] = target: Gal(b1-4)GlcNAc(b1-2)Man(a1-3)[Gal(b1-4)GlcNAc(b1-2)Man(a1-6)][GlcNAc(b1-4)]Man(b1-4)GlcNAc(b1-4)[Fuc(a1-6)]GlcNAc
# Procedure, shortened: as §1
# [21] = target: Gal(b1-4)GlcNAc(b1-2)Man(a1-3)[GlcNAc(b1-2)Man(a1-6)]Man(b1-4)GlcNAc(b1-4)GlcNAc
# Procedure, shortened: as §1
# [22] = target: Gal(b1-4)GlcNAc(b1-2)Man(a1-3)[GlcNAc(b1-4)][Gal(b1-4)GlcNAc(b1-2)Man(a1-6)]Man(b1-4)GlcNAc(b1-4)GlcNAc
# Procedure, shortened: as §1
# [23] = target: Gal(b1-4)GlcNAc(b1-2)Man(a1-3)[Man(a1-6)]Man(b1-4)GlcNAc(b1-4)GlcNAc
# Procedure, shortened: as §1
# [24] = target: Gal(b1-4)GlcNAc(b1-2)Man(a1-6)Man(b1-4)GlcNAc(b1-4)GlcNAc
# Procedure, shortened: as §1
# [25] = target: Gal(b1-4)GlcNAc(b1-2)Man(a1-6)[GlcNAc(b1-2)Man(a1-3)]Man(b1-4)GlcNAc(b1-4)GlcNAc
# Procedure, shortened: as §1
# [26] = target: Gal(b1-4)GlcNAc(b1-2)Man(a1-6)[Man(a1-3)]Man(b1-4)GlcNAc(b1-4)GlcNAc
# Procedure, shortened: as §1
# [27] = target: Gal(b1-4)GlcNAc(b1-2)[Gal(b1-4)GlcNAc(b1-4)]Man(a1-3)[Gal(b1-4)GlcNAc(b1-2)Man(a1-6)]Man(b1-4)GlcNAc(b1-4)GlcNAc
# Procedure, shortened: as §1
# [28] = target: Gal(b1-4)GlcNAc(b1-2)[Gal(b1-4)GlcNAc(b1-4)]Man(a1-3)[Gal(b1-4)GlcNAc(b1-2)[Gal(b1-4)GlcNAc(b1-6)]Man(a1-6)]Man(b1-4)GlcNAc(b1-4)GlcNAc
# Procedure, shortened: as §1
# [29] = target: Gal(b1-4)GlcNAc(b1-2)[Gal(b1-4)GlcNAc(b1-4)]Man(a1-3)[GlcNAc(b1-4)][Gal(b1-4)GlcNAc(b1-2)Man(a1-6)]Man(b1-4)GlcNAc(b1-4)GlcNAc
# Procedure, shortened: as §1
# [30] = target: Gal(b1-4)GlcNAc(b1-2)[Gal(b1-4)GlcNAc(b1-4)]Man(a1-3)[GlcNAc(b1-4)][Gal(b1-4)GlcNAc(b1-2)[Gal(b1-4)GlcNAc(b1-6)]Man(a1-6)]Man(b1-4)GlcNAc(b1-4)GlcNAc
# Procedure, shortened: as §1
# [31] = target: Gal(b1-4)GlcNAc(b1-2)[Gal(b1-4)GlcNAc(b1-6)]Man(a1-6)[Gal(b1-4)GlcNAc(b1-2)Man(a1-3)]Man(b1-4)GlcNAc(b1-4)GlcNAc
# Procedure, shortened: as §1
# [32] = target: Gal(b1-4)GlcNAc(b1-2)[Gal(b1-4)GlcNAc(b1-6)]Man(a1-6)[Gal(b1-4)GlcNAc(b1-2)Man(a1-3)]Man(b1-4)GlcNAc(b1-4)[Fuc(a1-6)]GlcNAc
# Procedure, shortened: as §1
# [33] = target: Gal(b1-4)GlcNAc(b1-2)[Gal(b1-4)GlcNAc(b1-6)]Man(a1-6)[GlcNAc(b1-4)][Gal(b1-4)GlcNAc(b1-2)Man(a1-3)]Man(b1-4)GlcNAc(b1-4)GlcNAc
# Procedure, shortened: as §1
# [34] = target: Gal(b1-4)GlcNAc(b1-2)[Gal(b1-4)GlcNAc(b1-6)]Man(a1-6)[GlcNAc(b1-4)][Gal(b1-4)GlcNAc(b1-2)[Gal(b1-4)GlcNAc(b1-4)]Man(a1-3)]Man(b1-4)GlcNAc(b1-4)[Fuc(a1-6)]GlcNAc
# Procedure, shortened: as §1
# [35] = target: Gal(b1-4)GlcNAc(b1-3)Gal(b1-3)GalNAc
# Procedure, shortened: as §1
# [36] = target: Gal(b1-4)GlcNAc(b1-3)Gal(b1-3)GlcNAc
# Procedure, shortened: as §1
# [37] = target: Gal(b1-4)GlcNAc(b1-3)Gal(b1-4)Glc
# Procedure, shortened: as §1
# [38] = target: Gal(b1-4)GlcNAc(b1-3)Gal(b1-4)GlcNAc
# Procedure, shortened: as §1
# [39] = target: Gal(b1-4)GlcNAc(b1-3)Gal(b1-4)GlcNAc(b1-2)Man(a1-3)[Gal(b1-4)GlcNAc(b1-3)Gal(b1-4)GlcNAc(b1-2)Man(a1-6)]Man(b1-4)GlcNAc(b1-4)GlcNAc
# Procedure, shortened: as §1
binder,measurement,setting,value
B1,glycan array binding signal (z-score),[1],-0.086
same,glycan array binding signal (z-score),[2],0.548
same,glycan array binding signal (z-score),Gal(b1-3)GlcNAc6S,-0.152
same,glycan array binding signal (z-score),[3],-0.214
same,glycan array binding signal (z-score),[4],-0.032
same,glycan array binding signal (z-score),[5],-0.123
same,glycan array binding signal (z-score),[6],-0.149
same,glycan array binding signal (z-score),[7],-0.245
same,glycan array binding signal (z-score),[8],0.272
same,glycan array binding signal (z-score),[9],1.02
same,glycan array binding signal (z-score),[10],3.63
same,glycan array binding signal (z-score),[11],-0.314
same,glycan array binding signal (z-score),[12],0.099
same,glycan array binding signal (z-score),Gal(b1-4)Gal,-0.271
same,glycan array binding signal (z-score),[13],-0.098
same,glycan array binding signal (z-score),[14],-0.013
same,glycan array binding signal (z-score),Gal(b1-4)Glc,-0.031
same,glycan array binding signal (z-score),Gal(b1-4)Glc6S,0.015
same,glycan array binding signal (z-score),Gal(b1-4)GlcNAc,-0.022
same,glycan array binding signal (z-score),[15],0.404
same,glycan array binding signal (z-score),Gal(b1-4)GlcNAc(b1-2)Man,-0.314
same,glycan array binding signal (z-score),[16],-0.171
same,glycan array binding signal (z-score),[17],-0.241
same,glycan array binding signal (z-score),[18],-0.159
same,glycan array binding signal (z-score),[19],-0.291
same,glycan array binding signal (z-score),[20],-0.184
same,glycan array binding signal (z-score),[21],-0.194
same,glycan array binding signal (z-score),[22],-0.229
same,glycan array binding signal (z-score),[23],-0.238
same,glycan array binding signal (z-score),[24],-0.313
same,glycan array binding signal (z-score),[25],-0.271
same,glycan array binding signal (z-score),[26],-0.166
same,glycan array binding signal (z-score),[27],-0.225
same,glycan array binding signal (z-score),[28],-0.199
same,glycan array binding signal (z-score),[29],-0.261
same,glycan array binding signal (z-score),[30],-0.078
same,glycan array binding signal (z-score),[31],-0.253
same,glycan array binding signal (z-score),[32],-0.059
same,glycan array binding signal (z-score),[33],-0.19
same,glycan array binding signal (z-score),[34],-0.138
same,glycan array binding signal (z-score),[35],-0.282
same,glycan array binding signal (z-score),[36],-0.16
same,glycan array binding signal (z-score),[37],-0.156
same,glycan array binding signal (z-score),[38],-0.182
same,glycan array binding signal (z-score),[39],2.06
